# Assay results from the supplement of paper PMC8728848.
# The list shows a part of the results.
# B1: Jacalin (Artocarpus integrifolia) (protein)
# chain: MAYSSLLSLSVLALLFSISSADTRKWFLANGINQNPIGIIEAAVGVSEDLLNLNGMEAKNDEQSGISQTVIVGPWGAKVSTSSNGKAFDDGAFTGIREINLSYNKETAIGDFQVVYDLNGSPYVGQNHKSFITGFTPVKISLDFPSEYIMEVSGYTGNVSGYVVVRSLTFKTNKKTYGPYGVTSGTPFNLPIENGLIVGFKGSIGYWLDYFSMYLSL
# Legend:
# Test in all cases: glycan array binding signal (z-score within array); higher = stronger binding
# Settings in all cases: glycan notation: IUPAC condensed, linker removed
# [1] = biological target: Fuc(a1-3)[Gal(b1-4)]GlcNAc(b1-6)[Gal(b1-3)GlcNAc(b1-3)]Gal(b1-4)Glc
# Method in brief: (§1)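 Arrays were curated from the Consortium for Functional Glycomics database, 3228 in total, and kept only where the protein sequence was available. Binding is expressed as a within-array Z-score. This score was averaged across arrays of the same protein sequence at different concentrations or buffers and across linkers, and negative values can be read as non-binding.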
# [2] = biological target: Fuc(a1-3)[Gal(b1-4)]GlcNAc6S
# Method in brief: as §1
# [3] = biological target: Fuc(a1-3)[Gal3S(b1-4)]Glc
# Method in brief: as §1
# [4] = biological target: Fuc(a1-3)[Gal3S(b1-4)]GlcNAc
# Method in brief: as §1
# [5] = biological target: Fuc(a1-3)[Gal3S(b1-4)]GlcNAc6S
# Method in brief: as §1
# [6] = biological target: Fuc(a1-3)[GalNAc(b1-4)]GlcNAc
# Method in brief: as §1
# [7] = biological target: Fuc(a1-3)[GalNAc(b1-4)]GlcNAc6S
# Method in brief: as §1
# Fuc(a1-4)GlcNAc = biological target: Fuc(a1-4)GlcNAc
# Method in brief: as §1
# Fuc(b1-3)GlcNAc = biological target: Fuc(b1-3)GlcNAc
# Method in brief: as §1
# Gal(a1-2)Gal = biological target: Gal(a1-2)Gal
# Method in brief: as §1
# Gal(a1-3)Gal = biological target: Gal(a1-3)Gal
# Method in brief: as §1
# Gal(a1-3)Gal(b1-3)GlcNAc = biological target: Gal(a1-3)Gal(b1-3)GlcNAc
# Method in brief: as §1
# [8] = biological target: Gal(a1-3)Gal(b1-3)GlcNAc(b1-2)Man
# Method in brief: as §1
# [9] = biological target: Gal(a1-3)Gal(b1-3)GlcNAc(b1-2)Man(a1-3)[Gal(a1-3)Gal(b1-3)GlcNAc(b1-2)Man(a1-6)]Man(b1-4)GlcNAc(b1-4)GlcNAc
# Method in brief: as §1
# [10] = biological target: Gal(a1-3)Gal(b1-3)GlcNAc(b1-3)GalNAc
# Method in brief: as §1
# [11] = biological target: Gal(a1-3)Gal(b1-3)GlcNAc(b1-6)GalNAc
# Method in brief: as §1
# [12] = biological target: Gal(a1-3)Gal(b1-3)[Fuc(a1-4)]GlcNAc(b1-2)Man(a1-3)[Gal(a1-3)Gal(b1-3)[Fuc(a1-4)]GlcNAc(b1-2)Man(a1-6)]Man(b1-4)GlcNAc(b1-4)GlcNAc
# Method in brief: as §1
# Gal(a1-3)Gal(b1-4)Glc = biological target: Gal(a1-3)Gal(b1-4)Glc
# Method in brief: as §1
# Gal(a1-3)Gal(b1-4)GlcNAc = biological target: Gal(a1-3)Gal(b1-4)GlcNAc
# Method in brief: as §1
# [13] = biological target: Gal(a1-3)Gal(b1-4)GlcNAc(b1-2)Man
# Method in brief: as §1
# [14] = biological target: Gal(a1-3)Gal(b1-4)GlcNAc(b1-2)Man(a1-3)[Gal(a1-3)Gal(b1-4)GlcNAc(b1-2)Man(a1-6)]Man(b1-4)GlcNAc(b1-4)GlcNAc
# Method in brief: as §1
# [15] = biological target: Gal(a1-3)Gal(b1-4)GlcNAc(b1-3)GalNAc
# Method in brief: as §1
# [16] = biological target: Gal(a1-3)Gal(b1-4)GlcNAc(b1-6)GalNAc
# Method in brief: as §1
# [17] = biological target: Gal(a1-3)Gal(b1-4)[Fuc(a1-3)]GlcNAc
# Method in brief: as §1
# [18] = biological target: Gal(a1-3)Gal(b1-4)[Fuc(a1-3)]GlcNAc(b1-2)Man(a1-3)[Gal(a1-3)Gal(b1-4)[Fuc(a1-3)]GlcNAc(b1-2)Man(a1-6)]Man(b1-4)GlcNAc(b1-4)GlcNAc
# Method in brief: as §1
# Gal(a1-3)GalNAc = biological target: Gal(a1-3)GalNAc
# Method in brief: as §1
# [19] = biological target: Gal(a1-3)[Gal(a1-4)]Gal(b1-4)GlcNAc
# Method in brief: as §1
# [20] = biological target: Gal(a1-4)Gal(b1-3)GlcNAc(b1-2)Man(a1-3)[Gal(a1-4)Gal(b1-3)GlcNAc(b1-2)Man(a1-6)]Man(b1-4)GlcNAc(b1-4)GlcNAc
# Method in brief: as §1
# Gal(a1-4)Gal(b1-4)Glc = biological target: Gal(a1-4)Gal(b1-4)Glc
# Method in brief: as §1
# Gal(a1-4)Gal(b1-4)GlcNAc = biological target: Gal(a1-4)Gal(b1-4)GlcNAc
# Method in brief: as §1
# [21] = biological target: Gal(a1-4)Gal(b1-4)GlcNAc(b1-2)Man(a1-3)[Gal(a1-4)Gal(b1-4)GlcNAc(b1-2)Man(a1-6)]Man(b1-4)GlcNAc(b1-4)GlcNAc
# Method in brief: as §1
# [22] = biological target: Gal(a1-4)Gal(b1-4)GlcNAc(b1-3)Gal(b1-4)Glc
# Method in brief: as §1
# Gal(a1-4)GlcNAc = biological target: Gal(a1-4)GlcNAc
# Method in brief: as §1
# Gal(a1-6)Glc = biological target: Gal(a1-6)Glc
# Method in brief: as §1
# Gal(b1-2)Gal = biological target: Gal(b1-2)Gal
# Method in brief: as §1
# Gal(b1-3)Gal = biological target: Gal(b1-3)Gal
# Method in brief: as §1
# Gal(b1-3)Gal(b1-4)GlcNAc = biological target: Gal(b1-3)Gal(b1-4)GlcNAc
# Method in brief: as §1
# Gal(b1-3)GalNAc = biological target: Gal(b1-3)GalNAc
# Method in brief: as §1
# [23] = biological target: Gal(b1-3)GalNAc(a1-3)[Fuc(a1-2)]Gal(b1-4)Glc
# Method in brief: as §1
# [24] = biological target: Gal(b1-3)GalNAc(a1-3)[Fuc(a1-2)]Gal(b1-4)GlcNAc
# Method in brief: as §1
# Gal(b1-3)GalNAc(b1-3)Gal = biological target: Gal(b1-3)GalNAc(b1-3)Gal
# Method in brief: as §1
# [25] = biological target: Gal(b1-3)GalNAc(b1-3)Gal(a1-4)Gal(b1-4)Glc
# Method in brief: as §1
# [26] = biological target: Gal(b1-3)GalNAc(b1-4)Gal(b1-4)Glc
# Method in brief: as §1
# [27] = biological target: Gal(b1-3)GalNAc(b1-4)[Neu5Ac(a2-3)]Gal(b1-4)Glc
# Method in brief: as §1
# Gal(b1-3)GlcNAc = biological target: Gal(b1-3)GlcNAc
# Method in brief: as §1
binder,measurement,setting,value
B1,glycan array binding signal (z-score),[1],-0.267
same,glycan array binding signal (z-score),[2],-0.249
same,glycan array binding signal (z-score),[3],-0.263
same,glycan array binding signal (z-score),[4],-0.306
same,glycan array binding signal (z-score),[5],-0.272
same,glycan array binding signal (z-score),[6],-0.183
same,glycan array binding signal (z-score),[7],-0.204
same,glycan array binding signal (z-score),Fuc(a1-4)GlcNAc,-0.266
same,glycan array binding signal (z-score),Fuc(b1-3)GlcNAc,-0.269
same,glycan array binding signal (z-score),Gal(a1-2)Gal,-0.265
same,glycan array binding signal (z-score),Gal(a1-3)Gal,0.185
same,glycan array binding signal (z-score),Gal(a1-3)Gal(b1-3)GlcNAc,-0.243
same,glycan array binding signal (z-score),[8],-0.256
same,glycan array binding signal (z-score),[9],-0.19
same,glycan array binding signal (z-score),[10],0.712
same,glycan array binding signal (z-score),[11],-0.259
same,glycan array binding signal (z-score),[12],-0.167
same,glycan array binding signal (z-score),Gal(a1-3)Gal(b1-4)Glc,-0.258
same,glycan array binding signal (z-score),Gal(a1-3)Gal(b1-4)GlcNAc,-0.275
same,glycan array binding signal (z-score),[13],-0.257
same,glycan array binding signal (z-score),[14],-0.215
same,glycan array binding signal (z-score),[15],0.893
same,glycan array binding signal (z-score),[16],-0.274
same,glycan array binding signal (z-score),[17],-0.268
same,glycan array binding signal (z-score),[18],-0.275
same,glycan array binding signal (z-score),Gal(a1-3)GalNAc,0.322
same,glycan array binding signal (z-score),[19],-0.247
same,glycan array binding signal (z-score),[20],-0.229
same,glycan array binding signal (z-score),Gal(a1-4)Gal(b1-4)Glc,-0.231
same,glycan array binding signal (z-score),Gal(a1-4)Gal(b1-4)GlcNAc,-0.218
same,glycan array binding signal (z-score),[21],-0.231
same,glycan array binding signal (z-score),[22],-0.262
same,glycan array binding signal (z-score),Gal(a1-4)GlcNAc,0.782
same,glycan array binding signal (z-score),Gal(a1-6)Glc,0.126
same,glycan array binding signal (z-score),Gal(b1-2)Gal,-0.257
same,glycan array binding signal (z-score),Gal(b1-3)Gal,-0.001
same,glycan array binding signal (z-score),Gal(b1-3)Gal(b1-4)GlcNAc,-0.275
same,glycan array binding signal (z-score),Gal(b1-3)GalNAc,0.936
same,glycan array binding signal (z-score),[23],-0.282
same,glycan array binding signal (z-score),[24],-0.259
same,glycan array binding signal (z-score),Gal(b1-3)GalNAc(b1-3)Gal,-0.254
same,glycan array binding signal (z-score),[25],0.172
same,glycan array binding signal (z-score),[26],-0.255
same,glycan array binding signal (z-score),[27],-0.277
same,glycan array binding signal (z-score),Gal(b1-3)GlcNAc,-0.269
